# Screen size: about 340,000 compounds; about 12,000 (3.5%) were called active. The shares of active, inactive and inconclusive entries below differ from those in the screen. The call rests on the fitted dose curve; in most records, active means well fitted inhibition curve with a large enough effect; inconclusive means small, poorly fitted or top-dose-only effect, or another doubt; inactive means no such curve, though single readings can be large or run the other way. Potencies of inconclusive entries are left out as doubtful fits.
# Assay: qHTS Assay for Inhibitors of Hepatitis C Virus (HCV)
# Details: Huh7.5.1 HCVcc-Cre (HCVcc is cell-culture hepatitis C virus) infection, luciferase reporter, 44 h; activity change, negative = inhibition: at 41.8 µM (top of the series)
# How it was run: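 Reporter virus HCVcc-Cre (~0.5 moi) infects cells exposed to compound; seeding density 1,000 cells/well with 4 h settling beforehand. Luminescence, 15 sec read, taken 44 h post-infection following a 15 min RT substrate incubation.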
# On the % scale 0 is the no-effect control and ±100 the full control effect; potency means the concentration at half of the fitted maximal effect; tags describe the fitted curve by direction and shape.
Structure (SMILES),Potency,"activity change, negative = inhibition"
O=C(Nc1ccc(O)c(-c2nc3ccccc3o2)c1)C1(c2ccc(Cl)cc2)CCCC1,"inconclusive [inhibitor, partial curve]",–
COc1ccc(CC(=O)Nc2ccc(S(=O)(=O)N3CCCC3)cc2)c(OC)c1,"inconclusive [inhibitor, single point]",–
CC1(C)Cc2c(c(N3CCCC3)nc3sc4c(N5CCNCC5)ncnc4c23)CO1,active: 14.1 µM,–
CCNc1nc(NCC)nc(N/N=C/c2ccc([N+](=O)[O-])o2)n1,–,inactive: -27.6%
CCc1cccc(C)c1NC(=O)CN1CCN(S(=O)(=O)c2ccc(C(C)(C)C)cc2)CC1,active: 2 µM,–
CCN(CC)S(=O)(=O)c1ccc(C)c(NC(=S)N2CCN(Cc3ccc4c(c3)OCO4)CC2)c1,active: 6.31 µM,–
O=C(Cc1ccccc1F)Nc1cccc(S(=O)(=O)N2CCOCC2)c1,–,inactive: -14.6%
CCNC(=S)Nc1ccc(S(=O)(=O)Nc2cc(C)nc(C)n2)cc1,–,inactive: 10.2%
OC(CNC1CCCCC1)CNC1CCCCC1,"inconclusive [inhibitor, single point]",–
CCCCOc1ccc(NC(=O)c2cc(F)c(F)cc2Cl)cc1,"inconclusive [inhibitor, partial curve]",–
CCCCCOC(=O)CSc1nc2c(c(=O)[nH]c(=O)n2C)n1Cc1ccc(Cl)cc1,active: 2.82 µM,–
CCOc1ccccc1NC(=O)CCC(=O)Nc1ccc2nc(N3CCN(C)CC3)cc(C)c2c1,"inconclusive [inhibitor, single point]",–
CCCCN(C(=O)CC1CCCCC1)c1c(N)n(CC(C)C)c(=O)[nH]c1=O,–,inactive: 3.71%
Cc1cc(C(=O)N/N=C/c2c(C)nn(-c3ccccc3)c2C)c(C)o1,"inconclusive [inhibitor, full curve, poor fit]",–
C#Cc1ccc(CN2CCCC(C(=O)Nc3ccccc3Oc3cccnc3)C2)cc1 (stereo not given),–,inactive: 0.332%
COc1cccc(C2/C(=C(/O)c3cnn(-c4ccccc4)c3C)C(=O)C(=O)N2CCN(C)C)c1 (stereo not given),"inconclusive [inhibitor, single point]",–
CC(Nc1nc(-c2ccc(F)cc2)cs1)c1nc2cc(C(F)(F)F)ccc2n1CCCO (stereo not given),"inconclusive [inhibitor, single point]",–
CN(CCC#N)C(=O)COC(=O)c1cccnc1Nc1ccccc1F,–,inactive: 3.15%
Cc1cc2cc(CNC(=O)c3ccc(S(=O)(=O)N4CCCCC4)cc3)ccc2[nH]1,"inconclusive [inhibitor, single point]",–
CCN1C(=O)c2ccccc2S(=O)(=O)c2ccc(C(=O)NCCOC)cc21,–,inactive: 39.2%
O=C(c1ccco1)N1CCN(Cc2c(F)cccc2Cl)CC1,–,inactive: 11.8%
CCOC(=O)c1c(NC(=O)c2cccs2)sc2c1CCCC2,"inconclusive [inhibitor, partial curve]",–
C(=N\Nc1nc2ccccc2[nH]1)/c1ccc2c(c1)OCCO2,"inconclusive [inhibitor, single point]",–
C=CCN1c2ccccc2[C@]23C[C@@H](C(=O)OC)N(C(=O)CC(C)C)C2=NC(C(=O)OC)=C(C(=O)OC)[C@H]13,active: 7.94 µM,–

Structure (SMILES),Potency,"activity change, negative = inhibition"
CSCCC(NC(=O)c1ccco1)C(=O)NCCc1ccc(Cl)cc1 (stereo not given),–,inactive: -10.9%
O=S(=O)(NCC(O)COCc1ccco1)c1cccs1 (stereo not given),–,inactive: 6.9%
CCNc1nc(Oc2ccc(C#N)cc2)cc(C(F)(F)F)n1,"inconclusive [inhibitor, single point]",–
O=C(Cc1ccc([N+](=O)[O-])cc1)Nc1nnc(C2CC2)s1,–,inactive: 3.76%
Cc1ccc(NC(=O)C2CCN(S(=O)(=O)c3ccc4c(c3)CC(C)N4C(=O)C3CCC3)CC2)nc1 (stereo not given),active: 8.91 µM,–
Nc1nc(SCC(=O)c2cccc([N+](=O)[O-])c2)n[nH]1,"inconclusive [inhibitor, single point]",–
COc1ccc(N=C2C(=O)N3c4c(cccc42)C(C)=CC3(C)C)cc1,"inconclusive [inhibitor, single point]",–
C=CCn1c(NC(=O)c2ccccc2)nc2ccccc21,"inconclusive [inhibitor, single point]",–
Cn1c(NC(=O)c2cc(-c3ccc4c(c3)OCO4)nc3ccccc23)cc(=O)n(C)c1=O,–,inactive: 12.6%
COc1ccc(-c2csc(/C=C/c3ccc4c(c3)OCO4)n2)cc1OC,–,inactive: -6.79%
S=C(NCc1ccco1)Nc1cc(Cl)c(Cl)cc1Cl,active: 25.1 µM,–
CCN1C(=O)c2cccc3c(S(=O)(=O)Nc4ccccc4OC)ccc1c23,"inconclusive [inhibitor, single point]",–
S=C(NCCc1ccccn1)NC1CCCCC1,–,inactive: 6.4%
CCOc1ccc(S(=O)(=O)N2CCN(c3ccccn3)CC2)cc1,–,inactive: -7.79%
O=C(N/N=C/c1sc(N2CCOCC2)nc1-c1ccccc1)c1ccccc1F,"inconclusive [inhibitor, partial curve]",–
COc1cc2c(cc1NC(=O)Nc1ccccc1)oc1ccccc12,active: 5.01 µM,–
CC(C)(C)OC(=O)NCCCCCNC(=O)c1nc[nH]c1C(=O)NCc1ccccc1,"inconclusive [inhibitor, partial curve]",–
COc1ccc(C(=O)NCc2ccc(N3CCN(C(=O)OC(C)(C)C)CC3)cc2)cc1,"inconclusive [inhibitor, single point]",–
CCc1noc(C)c1C(=O)OC(C)C(=O)Nc1cc([N+](=O)[O-])ccc1OC (stereo not given),"inconclusive [inhibitor, full curve, poor fit]",–
COCCNC(=S)N/N=C(\C)c1ccc(OC)cc1,–,inactive: 2.38%
Cc1ccc(S(=O)(=O)CCSc2n[nH]c(=O)n2-c2ccccc2)cc1,"inconclusive [inhibitor, partial curve, poor fit]",–
O=C(Nc1nccs1)c1sc2ccccc2c1Cl,"inconclusive [inhibitor, single point]",–
Cc1nn(-c2ccc(F)cc2)c(Cl)c1/C=N/NC(=O)c1cccc(S(=O)(=O)N2CCCC2)c1,"inconclusive [inhibitor, partial curve]",–
COc1ccc(NS(=O)(=O)c2cccc(C(=O)NNC(=O)c3ccccc3O)c2)cc1,"inconclusive [inhibitor, single point]",–

Structure (SMILES),Potency,"activity change, negative = inhibition"
CC(=O)Nc1ccc(S(=O)(=O)N(C)CC(=O)Nc2nc3ccccc3[nH]2)cc1,–,inactive: 15.4%
COc1ccc(C(=O)Nc2ccccc2C(=O)NCc2ccco2)cc1,"inconclusive [inhibitor, single point]",–
COc1ccc(-[n+]2c(C)cc(/C=C3\Sc4ccccc4N3C)cc2C)cc1,active: 1.12 µM,–
CCOC(=O)c1[nH]c(C)c(C(=O)OCC(=O)Nc2sc3c(c2C#N)CCCCC3)c1C,"inconclusive [inhibitor, full curve]",–
CCOc1c(OC)cccc1C1CC(=O)Nc2cc3c(cc21)OCCO3 (stereo not given),"inconclusive [inhibitor, single point]",–
Fc1ccc(COc2cccc(CNCc3ccncc3)c2)cc1,"inconclusive [inhibitor, single point]",–
O=c1c2ccc(Cl)cc2nc(-c2cccc(C(F)(F)F)c2)n1O,"inconclusive [inhibitor, single point]",–
CCc1cc(Cn2nc(-c3ccccc3)cc2C(=O)NCc2cccs2)on1,"inconclusive [inhibitor, partial curve]",–
COc1cc(C(=O)NCC(=O)N/N=C\C(C)=C/c2ccccc2)cc(OC)c1OC,"inconclusive [inhibitor, full curve]",–
CCOc1ccc(S(=O)(=O)NCCC(=O)NCC(C)(C)N2CCOCC2)cc1,–,inactive: 12.5%
O=C(c1cnccn1)N(Cc1ccco1)C1(C(=O)NC2CCCCC2)CCCCC1,"inconclusive [inhibitor, single point]",–
CCOC(=O)c1cccc(NC(=O)CSc2nncn2-c2ccccn2)c1,–,inactive: 6.52%
Cc1ccc(/C(N)=N/OC(=O)COc2ccccc2Cl)cc1,"inconclusive [inhibitor, partial curve]",–
COc1ccccc1C(=O)NCCC(=O)NC(C)c1ccc(-n2ccnc2)cc1 (stereo not given),"inconclusive [inhibitor, single point]",–
Cc1cc(Cl)c2c(c1)[C@]1(C(=O)N2)[C@@H]2C(=O)N(Cc3ccccc3)C(=O)[C@@H]2[C@@H]2CCCN21,"inconclusive [inhibitor, single point]",–
O=S1(=O)c2ccc(Br)cc2N2CC[C@H](C2)N1Cc1ccc(Cl)cc1,"inconclusive [inhibitor, full curve]",–
O=C(NCc1cccnc1)c1ccc(Cn2c(=S)[nH]c3ccc(Br)cc3c2=O)cc1,"inconclusive [inhibitor, partial curve]",–
O=[N+]([O-])c1ccc(/C=N/Nc2nc(N3CCCC3)nc(N3CCCC3)n2)o1,"inconclusive [inhibitor, partial curve]",–
CCOC(=O)c1cc2c(ccc3nc(C)c(C)c32)[nH]c1C,active: 3.16 µM,–
COc1ccc(OC)c(NC(=O)Nc2ccccc2C)c1,"inconclusive [inhibitor, partial curve]",–
O=C(COC(=O)[C@H](Cc1ccccc1)NC(=O)c1ccco1)Nc1ccccc1OC(F)F,–,inactive: 11.2%
COc1ccc(-c2nc(CSCC(=O)N3CCc4ccccc4C3)c(C)o2)cc1OC,"inconclusive [inhibitor, partial curve]",–

# Reference: PubChem BioAssay AID651820 (National Center for Advancing Translational Sciences (NCATS), 2012)
